{
  "source": "PubChem BioAssay AID2546",
  "about": "(National Center for Advancing Translational Sciences (NCATS), 2010)",
  "note": "About 11,000 (3.5%) of roughly 310,000 compounds were called active. Inconclusive means that the source gave no clear call. Such entries were picked first, then a sample of the others. The call rests on the fitted dose curve; in most records, active means well fitted inhibition curve with a large enough effect; inconclusive means small, poorly fitted or top-dose-only effect, or effect the other way; inactive means flat fitted curve, though single readings scatter. Potencies of inconclusive entries are left out as doubtful fits. On the % scale 0 is the no-effect control and ±100 the full control effect; potency means the concentration at half of the fitted maximal effect; tags describe the fitted curve by direction and shape.",
  "data": [
    {"experiment": "VP16 counterscreen qHTS for inhibitors of ROR gamma transcriptional activity;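 further: Gal4-VP16 expression switched on by copper sulfate through the metallothionein promoter; nearly all actives have a fitted effect of over 50% in size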", "settings": "Drosophila S2 Gal4-VP16 UAS-luciferase, luminescence, 20 h; activity, negative = inhibition: at 53.6 µM (top of the series)", "values": [
      {"smiles": "COc1ccc(NC(=O)COc2ccccc2F)cc1S(=O)(=O)N1CCCCC1", "Potency": "inactive"},
      {"smiles": "O=C(c1ccco1)N1CCN(C(=O)c2cc(-c3ccccn3)nc3ccc(Cl)cc23)CC1", "Potency": "inactive"},
      {"smiles": "O=C(NNC(=S)Nc1ccc(Cl)cc1Cl)c1ccncc1", "Potency": "active: 11.2 µM"},
      {"smiles": "Cc1ccc(C(=O)c2ccccc2C(=O)OCC(=O)Nc2ccc(SC(F)F)cc2)cc1", "Potency": "inconclusive [inhibitor, partial curve, poor fit]"},
      {"smiles": "CCN(CC)c1ccc(/C=N/NC(=O)c2nnn(-c3nonc3N)c2-c2ccc(C)cc2)cc1", "Potency": "inconclusive [inhibitor, single point]"},
      {"smiles": "CCc1cccc(C)c1NC(=S)N(CCN(C)C)C(C)c1ccco1", "note": "(stereo unspecified)", "Potency": "inactive"},
      {"smiles": "CCOc1cccc(/C=C/c2ccc3cccc(O)c3n2)c1OC", "Potency": "active: 12.6 µM"},
      {"smiles": "O=C(NC1CC1)c1ccc2c(Cl)c3c(nc2c1)CCCC3", "Potency": "inconclusive [activator, single point]"},
      {"smiles": "CC(C)(C)c1ccc(C(=O)Nc2cnccn2)cc1", "Potency": "inconclusive [inhibitor, partial curve]"},
      {"smiles": "Cc1cc(NC(=O)c2sccc2C)n(-c2nc3ccccc3[nH]2)n1", "Potency": "active: 3.55 µM"},
      {"smiles": "CCCCN1CNC(=S)N(CCc2ccccc2)C1", "Potency": "active: 4.47 µM"},
      {"smiles": "Cc1ccc(C)c(C(C)NC(=S)NCc2ccc(F)cc2)c1", "note": "(stereo unspecified)", "Potency": "active: 1.41 µM"},
      {"smiles": "COc1ccc(CSCCN)cc1Cl", "Potency": "inactive"},
      {"smiles": "Brc1ccccc1OCCCOc1cccc2cccnc12", "Potency": "inconclusive [inhibitor, single point]"},
      {"smiles": "CNc1cc(C(F)(F)F)nc(-c2ccccn2)n1", "Potency": "active: 12.6 µM"},
      {"smiles": "COc1ccc2cc(C3c4cc(OC)c(OC)cc4CCN3C(=O)c3ccco3)c(=O)[nH]c2c1", "note": "(stereo unspecified)", "Potency": "inconclusive [inhibitor, single point]"},
      {"smiles": "Cc1cnc(NC(=O)c2ccc(OCC3CCCO3)cc2)s1", "note": "(stereo unspecified)", "Potency": "inconclusive [inhibitor, partial curve, poor fit]"},
      {"smiles": "OC1C=C2CCN3Cc4cc5c(cc4C(C1O)C23)OCO5", "note": "(stereo unspecified)", "Potency": "active: 11.2 µM"},
      {"smiles": "COc1cccc(/C=N/NC(=O)c2ccc([N+](=O)[O-])cc2Cl)c1O", "Potency": "active: 0.631 µM"},
      {"smiles": "CC(=O)N1c2ccc(S(=O)(=O)N3CCC(C(=O)Nc4ccc(F)cc4)CC3)cc2CC1C", "note": "(stereo unspecified)", "Potency": "inconclusive [inhibitor, single point]"},
      {"smiles": "CCSc1nc(-c2ccc(OC)cc2)ccc1C#N", "Potency": "inactive"},
      {"smiles": "Cc1ccc(S(=O)(=O)N(Cc2cccnc2)Cc2cc3ccccc3[nH]c2=O)cc1", "Potency": "inactive"},
      {"smiles": "CCOc1ccc(/C=N/Nc2cc(N3CCOCC3)nc(C)n2)c(O)c1", "Potency": "active: 11.2 µM"},
      {"smiles": "COc1ccc(NC(=O)Cc2coc3cc(C)c(C(C)C)cc23)cc1S(=O)(=O)N1CCOCC1", "Potency": "inconclusive [inhibitor, single point]"},
      {"smiles": "Cn1ncc(Br)c1C(=O)OCC(=O)Nc1nc(-c2ccccc2)cs1", "Potency": "inconclusive [inhibitor, partial curve]"},
      {"smiles": "Cc1nc(N)sc1-c1csc(Nc2ccccc2)n1", "Potency": "inconclusive [activator, single point]"},
      {"smiles": "C/C(=N\\NC(=S)NC1CCCCC1)c1c(F)cccc1F", "Potency": "active: 2.82 µM"},
      {"smiles": "CCOc1ccc(/C=C/C(=O)c2c(O)cc(C)oc2=O)cc1", "Potency": "inconclusive [inhibitor, single point]"},
      {"smiles": "COc1ccccc1OCC(=O)N/N=C/C=C/c1ccc([N+](=O)[O-])o1", "Potency": "active: 10 µM"},
      {"smiles": "FC(F)Sc1ccc(NC(=S)NC2CCCCC2)cc1", "Potency": "inconclusive [inhibitor, single point]"},
      {"smiles": "COC(=O)c1cc(S(=O)(=O)N2CCC(c3cc(OC)ccc3OC)C2)c[nH]1", "note": "(stereo unspecified)", "Potency": "inconclusive [inhibitor, single point]"},
      {"smiles": "CCOC(=O)c1cc(-c2ccc(F)cc2)nc2c1c(=O)[nH]c(=O)n2Cc1ccccc1", "Potency": "inactive"},
      {"smiles": "COc1ccc(C(=O)NC(=S)N2CCC(C)CC2)cc1", "Potency": "active: 3.98 µM"},
      {"smiles": "COc1ccc(-c2nc3ccccc3c(=O)n2O)cc1", "Potency": "inconclusive [inhibitor, single point]"},
      {"smiles": "CCC(Oc1ccccc1)C(=O)Nc1ccc(-c2nnc(-c3ccco3)o2)cc1", "note": "(stereo unspecified)", "Potency": "inconclusive [activator, single point]"},
      {"smiles": "CCCCN(C(=O)CCn1c(=O)oc2ccccc21)c1ccccc1", "Potency": "inactive"},
      {"smiles": "CC(=O)Nc1ccc(-c2csc(Nc3cccc(C)n3)n2)cc1", "Potency": "inactive"},
      {"smiles": "Cc1ccc(-c2noc(CCC(=O)Nc3cccc(C#N)c3)n2)cc1", "Potency": "inconclusive [inhibitor, partial curve, poor fit]"},
      {"smiles": "Cc1ccc(NC(=S)c2nc3ccccc3s2)cc1", "Potency": "active: 2 µM"},
      {"smiles": "COc1ccc(NC(=O)c2cn(CCC#N)nc2-c2cc3ccccc3o2)cc1", "Potency": "inconclusive [inhibitor, single point]"},
      {"smiles": "CCCC(=O)NC(=S)Nc1cccc2c(O)cccc12", "Potency": "inconclusive [inhibitor, single point]"},
      {"smiles": "O=[N+]([O-])c1ccc(N2CCN(c3ccccc3O)CC2)c(Cl)c1", "Potency": "inconclusive [inhibitor, partial curve]"},
      {"smiles": "COc1ccc(-c2ccc(/C=N/NC(=O)c3cccnc3)o2)c([N+](=O)[O-])c1", "Potency": "inconclusive [inhibitor, single point]"},
      {"smiles": "COc1ccc(/C=N/Nc2ccccn2)cc1OC", "Potency": "inconclusive [inhibitor, partial curve, poor fit]"},
      {"smiles": "NNC(=O)/C(=N/Nc1ccccc1)S(=O)(=O)c1ccc(Cl)cc1", "Potency": "inconclusive [inhibitor, single point]"},
      {"smiles": "Cc1cccc(NC(=O)CSc2nc3ccccc3c(=O)n2C)c1", "Potency": "inconclusive [inhibitor, single point]"},
      {"smiles": "C=CCc1c(C)nc(-c2ccccc2)nc1N/N=C(\\C)c1ccccc1", "Potency": "inconclusive [inhibitor, single point]"},
      {"smiles": "Cc1ccccc1C1C(C#N)=C2N=C(N)c3c(sc4c3CCCCC4)N2C2=C1C(=O)CCC2", "note": "(stereo unspecified)", "Potency": "inconclusive [inhibitor, single point]"},
      {"smiles": "Cc1nn2c(-c3cccc(NC(=O)c4ccco4)c3)nnc2c2ccccc12", "Potency": "inactive"},
      {"smiles": "COc1ccc(-c2ccc(/C=C3/C(=N)N4C(C)=CSC4=NC3=O)o2)c([N+](=O)[O-])c1", "Potency": "inconclusive [inhibitor, single point]"},
      {"smiles": "COc1ccc(C2CC(c3ccccc3O)=NN2C(=O)c2ccccc2)cc1OC", "note": "(stereo unspecified)", "Potency": "inactive"},
      {"smiles": "COc1ccc([N+](=O)[O-])cc1/C=N/NC(=O)Cc1ccccc1", "Potency": "inconclusive [inhibitor, single point]"},
      {"smiles": "CC12COC3(C(=O)Nc4nccs4)CC1CCC32C", "note": "(stereo unspecified)", "Potency": "inconclusive [inhibitor, single point]"},
      {"smiles": "Clc1ccccc1-c1nc(N/N=C/c2cccnc2)c2ccccc2n1", "Potency": "inactive"},
      {"smiles": "Cc1ccc(-n2nc3c([n+]2[O-])CCc2c-3no[n+]2[O-])cc1", "Potency": "inconclusive [inhibitor, single point]"},
      {"smiles": "C=CCOc1ccccc1C(=O)/C=C1/C(=O)Nc2ccccc21", "Potency": "active: 12.6 µM"},
      {"smiles": "CCOC(=O)c1cccc(Nc2nc(-c3cccnc3)nc3ccccc23)c1", "Potency": "inconclusive [inhibitor, single point]"},
      {"smiles": "COc1ccc(C(=O)CCS(=O)(=O)c2ccc(C)cc2)cc1OC", "Potency": "active: 4.47 µM"},
      {"smiles": "O=C(NCc1ccccn1)c1cc2n(n1)C(C(F)(F)F)CC(c1ccco1)N2", "note": "(stereo unspecified)", "Potency": "inactive"},
      {"smiles": "CCOc1ccc(C2C(C(=O)OC)=CN(C(C)c3ccccc3)C=C2C(=O)OC)cc1", "note": "(stereo unspecified)", "Potency": "inactive"},
      {"smiles": "COc1ccccc1CNC(=O)c1ccc(N2CCOCC2)c([N+](=O)[O-])c1", "activity, negative = inhibition": "inactive: -12.9% [at 10 µM]"},
      {"smiles": "O=[N+]([O-])c1c(Nc2cccc(O)c2)cc(Cl)c2nonc12", "Potency": "inconclusive [inhibitor, single point]"},
      {"smiles": "Cc1ccc(C(=O)O/N=C(\\N)c2ccccn2)c(Cl)c1", "Potency": "active: 2.82 µM"},
      {"smiles": "Fc1ccccc1-c1n[nH]c(=S)n1C1CC1", "Potency": "inconclusive [inhibitor, single point]"},
      {"smiles": "COc1ccc(-c2csc(N3C(=N)SCC3=O)n2)cc1", "Potency": "inconclusive [inhibitor, single point]"},
      {"smiles": "Cc1ccc(C)c(N2CCN(CC(=O)Nc3ccc([N+](=O)[O-])cc3C(=O)Nc3ccccc3F)CC2)c1", "Potency": "inactive"},
      {"smiles": "Cc1c(Cl)cccc1NC(=S)N1CCN(Cc2ccccc2)CC1", "Potency": "inconclusive [inhibitor, single point]"},
      {"smiles": "O=c1cc(-c2ccc([N+](=O)[O-])cc2)nc2cc(-c3ccc(Cl)cc3)[nH]n12", "Potency": "inactive"},
      {"smiles": "O=C(O)c1ccccc1CSc1nc2ccccc2s1", "Potency": "inactive"},
      {"smiles": "CCC1CCCCN1CCCNC(=O)c1c(O)nc2cc(C)ccn2c1=O", "note": "(stereo unspecified)", "Potency": "inactive"},
      {"smiles": "CCC(=O)Nc1cccc(NC(=S)NC(=O)c2ccccc2)c1", "Potency": "inactive"},
      {"smiles": "CC(NC(=O)Nc1nnc(C(F)(F)F)s1)(C(F)(F)F)C(F)(F)F", "Potency": "active: 5.62 µM"},
      {"smiles": "O=C(CCl)c1ccc2c(c1)CCN2C(=O)C1CC1", "Potency": "inconclusive [inhibitor, single point]"},
      {"smiles": "Cc1cc(C)c(S(=O)(=O)c2c(C)cccc2C)c(OCC(C)C)n1", "Potency": "inconclusive [inhibitor, single point]"},
      {"smiles": "COC(=O)c1sccc1OCc1cccc(OC)c1", "Potency": "inconclusive [activator, single point]"},
      {"smiles": "CC(=O)N(c1ccc2oc(=O)sc2c1)S(=O)(=O)c1cccs1", "Potency": "inactive"}
    ]}
  ]
}
